Measured values published in PubChem BioAssay AID1159614 (National Center for Advancing Translational Sciences (NCATS), 2016).
In all, about 45,000 compounds went through this assay and about 65 (0.1%) were called active. The call rests on the fitted dose curve; in most records, active means well fitted activation curve with a large enough effect; inconclusive means small, poorly fitted or top-dose-only effect; inactive means no such curve, though single readings can be large or run the other way. The list shows a part of the results.

biological target: Galactocerebrosidase (Homo sapiens) (UniProt P54803); experiment: A Novel Cell-Based Assay to Identify Small Molecules for B -Galactocerebrosidase; conditions: 145M-Twi-hGALC-G270D cells (Twitcher mouse brain line with human GALC G270D), HMU-beta-Gal fluorescence, 48 h; series mostly up to 57.5 µM; activation: at the top concentration; further: 0% is about no effect; nearly all actives have a fitted effect of over 65% in size
UniProt P54803, sequence (P54803 whole entry, looked up): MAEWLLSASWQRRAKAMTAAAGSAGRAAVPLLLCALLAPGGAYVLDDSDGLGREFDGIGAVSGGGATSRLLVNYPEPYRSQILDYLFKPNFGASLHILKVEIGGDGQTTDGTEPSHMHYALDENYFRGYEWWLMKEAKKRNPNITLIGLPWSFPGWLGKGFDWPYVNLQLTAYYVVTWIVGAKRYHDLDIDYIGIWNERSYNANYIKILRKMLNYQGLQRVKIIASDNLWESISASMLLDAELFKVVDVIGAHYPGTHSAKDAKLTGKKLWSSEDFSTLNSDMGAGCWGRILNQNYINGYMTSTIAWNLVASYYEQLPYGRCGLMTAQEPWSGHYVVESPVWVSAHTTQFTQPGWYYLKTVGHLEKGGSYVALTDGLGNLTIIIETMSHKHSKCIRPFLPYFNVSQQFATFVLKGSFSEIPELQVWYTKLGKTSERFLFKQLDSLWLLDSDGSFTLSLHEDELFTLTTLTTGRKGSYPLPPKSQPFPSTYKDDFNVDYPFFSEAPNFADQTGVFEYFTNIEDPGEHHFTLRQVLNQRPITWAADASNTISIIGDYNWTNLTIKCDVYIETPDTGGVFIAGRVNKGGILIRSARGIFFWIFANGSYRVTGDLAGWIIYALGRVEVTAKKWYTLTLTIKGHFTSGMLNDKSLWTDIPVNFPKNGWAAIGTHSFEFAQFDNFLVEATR
Procedure, shortened: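 Brain-derived Twitcher mouse 145M-Twi cells stably expressing human GALC-G270D or wild-type GALC, treated live, then residual GALC activity read by fluorescence of HMU-b-Gal substrate (0.1 mM final) in citrate-phosphate buffer pH 5.2 with sodium taurocholate. Signal increase indicates enhancement.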

activation, inactive:
Cc1cccc(-n2ncc(C(=O)NCc3ccccn3)c2C2CCN(C(=O)OC(C)(C)C)CC2)c1 -17.4%, CCN1CCN(Cc2c(O)ccc3c(C)c(-c4ccccc4)c(=O)oc23)CC1 -11.5%, Cc1cc(NC(=O)Cn2nc(C)n3cccc3c2=O)ccc1Br -5.82%, Cn1c(=O)n(-c2cccc(Cl)c2)c(=O)c2sc3ccccc3c21 -6.74%, CCOC(=O)N1CCC2(CC1)OC(=O)C(C)=C2C(=O)NCc1cccc(OC)c1 -3.84%, CCCS(=O)(=O)N1CC(=O)N(c2ccccc2C)C(C)(C(=O)NC2CCCC2)C1 (configuration not stated) -2.91%, CNC(=O)c1sc2ncccc2c1-n1cccc1 -15%, Cc1ccc(NC(=O)C(c2ccccc2)N2Cc3ccccc3C2=O)cc1Cl (configuration not stated) -16%, Cc1ccc(C)c(N2CCN(c3nc4ccccc4n4c(C)nnc34)CC2)c1 -5.83%, Cc1ccc(NC(=O)Cn2c(=O)n(CCC(=O)NCc3ccc4c(c3)OCO4)c(=O)c3sccc32)c(C)c1 -17.6%, CCCC(C(=O)OCCN(CC)CC)(c1ccccc1)c1ccccc1 -8.99%, O=C(CSc1nc2c(c(=O)[nH]1)CCCC2)Nc1ccc(Br)cc1 -0.305%, COc1ccc(CNc2cc(-c3ccc(OC)cc3)nc3nncn23)cc1 -4.99%, COc1ccccc1C(=O)Nc1c(C(=O)N(C)c2ccccc2)sc2nc(C)cc(C)c12 -19.8%, Cc1cccc(NC(=O)c2oc3ccccc3c2NC(=O)c2cc(=O)c3cc(Cl)ccc3o2)c1 7.39%, CCOC(=O)c1ccc(OC(=O)CCCCCN=C(N)N)cc1 -7.79%, Cn1c(SCC(=O)c2ccc(F)cc2)nnc1-c1ccccc1Br -48.3%, COc1ccc(C)cc1NC(=O)CSc1ccc(-c2ccccn2)nn1 -11%, O=C(Nc1ccc(Cl)cc1)c1cc(S(=O)(=O)N2CCc3ccccc32)ccc1F -10.2%, COc1ccc(-c2nc(Cn3c(SCc4ccccc4F)nc4ccncc43)c(C)o2)cc1OC -12.3%, Cc1ccc(S(=O)(=O)Nc2nc3n(n2)C(c2ccccc2Cl)C=C(c2ccccc2)N3)cc1 (configuration not stated) -15.3%, Cn1c(=O)c2sccc2n2c(CCC(=O)NCc3ccccc3Cl)nnc12 16.7%, CN(Cc1ccccc1)C(=O)C1CCN(S(=O)(=O)c2ccc3nc4c(c(C(=O)O)c3c2)CCCC4)CC1 -7.37%, COc1ccc(CNC(=O)C2CCN(C(=O)N3CC(C)Oc4ccc(C)cc43)CC2)cc1 (configuration not stated) -11.6%, COc1cccc(CNC(=O)CN2C(=O)COc3ccc(S(=O)(=O)Nc4ccccc4)cc32)c1 -7.97%, O=C(CCS(=O)(=O)c1cc(Br)cc2c1N(C(=O)C1CC1)CC2)Nc1ccc(C(F)(F)F)cc1 -9.83%, COc1ccc(CCNC(=O)c2c(C)oc3ncn(CC(C)C)c(=O)c23)cc1OC -9.81%
